About 540 (0.36%) of roughly 150,000 compounds showed an effect of 50% or more. Some of the results follow.

The test system of this assay is Plasmodium falciparum. The experiment in a line: Primary screen in NF54 nanoGlo assay, in single point, at 2uM, 72h; a lower Z score goes with more inhibition. The format is functional, Erythrocyte. Conditions: timepoint 72 hour.
The % Inhibition is the change of the read-out against control, counted positive when it falls. Take `Cc1cccc(C)c1C(=O)N1CCN([C@@H]2CCNC(=O)CC2)CC1`: the “% Inhibition” value came out at 8% and the Z score is recorded as -1.42.
The like results for `CCO[C@H]1CN(C)C[C@@H]1Nc1cc(C)nc(Nc2cccc(O)c2)n1` were, in that order, -6% and 1.08.
With `COc1cn(CC(=O)N2CCc3ccccc3C2)c(CO)cc1=O`, the “% Inhibition” value is 6% and the Z score is recorded as -0.99.
Turning to `O=C(c1ccsn1)N1CCC=C(F)C1`, the “% Inhibition” value came to 4% and the Z score is recorded as -0.52.
`COc1ccc(N2CCN(c3ncccc3-c3nc(C)no3)CC2)cc1`: the “% Inhibition” value was -3% and the Z score is given as 0.47.
In the case of `Cc1ccc2[nH]cc(CCC(=O)N(C)Cc3cnc(C)s3)c2c1`, the “% Inhibition” value is recorded as -7% and the Z score is listed as 1.02.
As to `NC(=O)c1ccc(NCC[C@H]2CCCOC2)nc1`, the “% Inhibition” value is recorded as -2% and the Z score is 0.35.
The like results for `O=C(NC1CCCCC1)N(C(=O)c1ccc2[nH]c3c(c2c1)CCCC3)C1CCCCC1` were, in that order, 9% and -1.
For the compound `CCc1cccc(NC(=O)c2c(C)oc3nc(C)nc(N4CCCC4)c23)c1`, the “% Inhibition” value is on record as -2% and the Z score was 0.36.
As to `Cc1cnc(C2CC2)n1C1CCN(C(=O)N(C)C)CC1`, the “% Inhibition” value is -4% and the Z score is on record as 0.53.
With `O=C(NC[C@H]1COCc2nc3ccccc3n21)c1cnccn1`, the “% Inhibition” value came to 3% and the Z score was -0.58.
The corresponding values for `Cn1cc(C(=O)N2CCO[C@H](c3ccccc3)C2)c2ccccc21` are -22% and 1.91.
Consider `CCc1ccc(NC(=O)c2scc(-c3cccc(F)c3)c2S(=O)(=O)N(C)c2ccccc2)cc1`, for which the “% Inhibition” value is reported as -10% and the Z score is reported as 1.8.
The like results for `O=S(=O)(Cc1ccc(F)cc1)N1CCC[C@H]1c1ccccc1` were, in that order, 7% and -1.16.
As for `COC(=O)C(C)C(NC(=O)c1oc(C)nc1C)c1ccccc1` (stereo unspecified), the “% Inhibition” value is recorded as -4% and the Z score worked out at 0.37.
As to `CN(C(=O)Nc1ccc(F)cc1F)c1nc2c(s1)CN(Cc1ccccc1)C2=O`, the “% Inhibition” value is 33% and the Z score is listed as -3.69.
As to `COCCN1CC[C@H](CN(C)c2ncc(F)c(OC)n2)C1`, the “% Inhibition” value is on record as -6% and the Z score is 1.15.
On to `CC(C)(C)c1cn(C[C@H]2CCCN(C(=O)C(=O)c3ccco3)C2)nn1`, for which the “% Inhibition” value is -1% and the Z score came to 0.1.
For the compound `Cc1noc(C)c1C(=O)NCC1CCN(C(=O)N(C)C)CC1`, the “% Inhibition” value was determined as 6% and the Z score is on record as -0.7.
With `Cc1ccccc1[C@@H](O)C1CCN(C(=O)Cc2cncc(O)c2)CC1`, the “% Inhibition” value is on record as -14% and the Z score was 1.4.
Consider `O=C(NCc1cc[nH]n1)NC1C2CCOC2C12CCCC2` (stereo unspecified), for which the “% Inhibition” value is listed as -2% and the Z score is reported as 0.27.
For the compound `O=C(NC1CCCCC1)N1C[C@@H](CO)C[C@@H](CN2CCOCC2)C1`, the “% Inhibition” value is given as -13% and the Z score worked out at 1.24.
The like results for `O=C(Nc1ccc(Cl)cc1)N1CCC(n2cnc3ccccc3c2=O)CC1` were, in that order, 3% and -0.29.
Turning to `COc1ccc(S(=O)(=O)N2CCc3nc(CNC(=O)C4CCC4)n(C)c3C2)cc1`, the “% Inhibition” value is on record as -8% and the Z score is listed as 0.94.
In the case of `O=C1C[C@H](c2nc(C3CC3)no2)CN1Cc1ccccc1`, the “% Inhibition” value stood at 0% and the Z score amounted to 0.
On to `COC(=O)[C@H](NC(=O)Cc1ccn[nH]1)c1ccc(F)cc1F`, for which the “% Inhibition” value is reported as -17% and the Z score is listed as 1.54.
With `CC(C)c1ccc(C(=O)O)cc1S(=O)(=O)N(C)CCF`, the “% Inhibition” value is 1% and the Z score is -0.14.
`CCCc1nnc(N[C@H]2CCN(C(C)C)C2=O)s1`: the “% Inhibition” value was -10% and the Z score worked out at 1.63.
For `CC(C)(C)n1cc(CN2CCOc3cc(F)ccc32)nn1`, the “% Inhibition” value is -14% and the Z score amounted to 1.67.
The like results for `O=C(c1nc(N2CCCCC2)ncc1Cl)N1CCN(c2ncccn2)CC1` were, in that order, -8% and 1.07.
Turning to `O=C([C@@H]1CCCO1)N(Cc1c(F)cccc1F)C1CC1`, the “% Inhibition” value is -9% and the Z score stood at 1.27.
For `C[C@H](NC(=O)CCc1cscn1)c1nc(-c2cccnc2)cs1`, the “% Inhibition” value turned out to be 7% and the Z score is reported as -1.12.
The corresponding values for `O=C(Cc1ccc(-c2ccccc2)cc1)Nc1ccc2c(c1)OCO2` are -16% and 2.89.
Take `Cc1ccc(-c2nccn2CCn2ccnc2)c(C)c1F`: the “% Inhibition” value was -3% and the Z score is reported as 0.35.
The like results for `COc1ccc(C(=O)NCc2csc(C)n2)o1` were, in that order, 3% and -0.41.
Take `Cc1nc(C(C)(C)NCC(=O)Nc2ccccc2)sc1C`: the “% Inhibition” value was found to be 7% and the Z score was -0.63.
Regarding `CCn1cc(-c2c(-c3ccccc3)ncn2CCc2nncn2CC)cn1`, the “% Inhibition” value is given as 1% and the Z score is on record as -0.11.
The like results for `NC(=O)C[C@H](NCc1cc2ccccc2c(=O)[nH]1)C1CCCCC1` were, in that order, 4% and -0.45.
In the case of `C[C@H]1CCCN(c2nc(-c3ccc(N4CCCC4=O)cc3)cs2)C1`, the “% Inhibition” value is on record as -4% and the Z score is given as 0.39.
`CC(C)(C)c1ccc([C@@H]2C3=C(O)c4ccccc4C3=Nc3ccccc3S2(=O)=O)cc1`: the “% Inhibition” value is listed as -16% and the Z score was 1.41.
On to `O=S(=O)(c1ccc(-c2csc(C3CC3)n2)cc1)N1CCCCC1`, for which the “% Inhibition” value is on record as -17% and the Z score is recorded as 1.76.
Consider `C[C@@H](C(=O)NCc1ccc(-c2ccc3c(c2)CCO3)cc1)n1cccn1`, for which the “% Inhibition” value is 5% and the Z score is -0.94.
As for `COc1cc(OC)nc(N2C[C@@H]3OC(=O)N(Cc4ccccn4)[C@@H]3C2)n1`, the “% Inhibition” value was -15% and the Z score came to 1.75.

The record behind these values is ChEMBL document CHEMBL4888484, “Replenishing the malaria drug discovery pipeline: Screening and hit evaluation of the MMV Hit Generation Library 1 (HGL1) against asexual blood stage Plasmodium falciparum ,using a nano luciferase reporter read-out” (2022).
